The source gives many values for each of these; only a part stands here.
Legend:
MC-38 tumors = test: Anti-tumor efficacy of Compound 1 with and without anti-PD-1 in the subcutaneous MC-38 model (Example 2D); format: in vivo, Mus musculus
Experimental: Female C57BL/6 mice were inoculated subcutaneously at right flank with MC-38 cells for tumor development. Five days after tumor inoculation, 48 mice with tumor size ranging from 50-100 mm^3 (average tumor size 72 mm^3) were selected and assigned into six groups using stratified randomization with 8 mice per group based upon their tumor volumes. The treatments were started from the day of randomization (defined as D0), Group 1 was treated with Vehicle (Tween 80:Ethanol:Saline—5:5:90 v/v/v), s.c., qd×14, Group 2 was treated with Anti-PD-1 10 mg/kg i.p. q4d×4, Group 3 was treated with Compound 1 0.3 mg/kg s.c. q.d.×14, Group 4 was treated with Compound 1 0.3 mg/kg s.c. q.d.×14+Anti-PD-1 10 mg/kg i.p. q4d×4, Group 5 was treated with Compound 1 1 mg/kg s.c. q.d.×14, Group 6 was treated with Compound 1 1 mg/kg s.c. q.d.×14+Anti-PD-1 10 mg/kg i.p. q4d×4. The tumor sizes were measured three times per week during the treatment. The entire study was terminated on D37 after start of the treatment.
Animal Species: Mus musculus; Strain: […]; Age: 6-8 weeks; Sex: female; Body weight (at treatment start): 18-22 g.
The MC-38 tumor cells were maintained in vitro as a monolayer culture in DMEM medium supplemented with 10% heat inactivated fetal bovine serum and 100 μg/mL penicillin streptomycin at 37° C. in an atmosphere of 5% CO2 in air. The tumor cells were routinely subcultured twice weekly by trypsin-EDTA treatment. The cells growing to a confluency around 70%-80% were harvested and counted for tumor inoculation. The cultured MC-38 were harvested, re-suspended in base medium at a density of 1×10^7 cells/mL with viability >90%. Each mouse was inoculated subcutaneously at the right flank with 1×10^6 cells in 0.1 ml base medium for tumor development.
The treatments were started on day 5 after tumor inoculation when the tumor size reached 50-100 mm^3 (average tumor size 72 mm^3). Each group consisted of 8 tumor bearing mice.
The testing article was administrated at the dosing volume indicated to the mice according to the predetermined regimen as shown Table 2D-1. Testing article formulations were prepared according to standard procedures. Details regarding tumor measurements and endpoints, and statistical analysis are provided in EXAMPLE 3.
Tumor sizes were measured three times a week in two dimensions using a caliper, and the volume expressed in mm^3 using the formula: V=0.5 a×b^2 where a and b are the long and short diameters of the tumor, respectively. The tumor sizes were then used for the calculations of both tumor growth inhibition (TGI) and T/C values.
TGI is calculated for each group using the formula: […]
TVTreatment_DayN is the average tumor volume of a treatment group on a given day, TVTreatment_Day0 is the average tumor volume of the treatment group on the first day of treatment, TVVehicle_DayN is the average tumor volume of the vehicle control group on a given day, and TVVehicle_Day0 is the average tumor volume of the vehicle group on the first day of treatment.
The T/C value (in percent) is an indication of antitumor effectiveness, T/C (%)=RTVTreatment/RTVControl×100% (RTVTreatment: the mean RTV of the treatment group; RTVControl: the mean RTV of the vehicle treated group). RTV (relative tumor volume)=TVDayN/TVDay0. TVDayN and TVDay0 is the tumor volume on day N and Day 0 respectively. T/C (%)≤42% is considered as significant antitumor activity and <10% is considered as highly significant antitumor activity by the National Cancer Institute criteria.
Animal survival curve: When an individual animal reached to the termination endpoint (TV>2000 mm^3), the mouse was euthanized. The time from treatment initiation to the termination was deemed as its survival time. Survival curve was plotted by Kaplan-Meier method. Median survival time (MST) was calculated for each group. Increase of life span (ILS) was calculated according to the following formula: […]
ILS (%)>25% is considered as a biologically significant survival benefit. […]

CT26.WT tumors = test: Anti-tumor efficacy of Compound 1 and Compound 1 in combination with anti-PD-1 in the CT26.WT syngeneic model (Example 10); format: in vivo, mice
Experimental: Female BALB/c mice were inoculated subcutaneously in the right flank with CT26.WT cells for tumor development. Six days after tumor inoculation, mice with tumor sizes ranging from 30-81 mm^3 (average tumor size 55 mm^3) were selected and assigned into 10 groups using stratified randomization with 8 mice per group based upon their tumor volumes. The treatments were started from the day of randomization (defined as D0), Group 1 was treated with Vehicle control, 10 mpk, SC, qd 5 days on (Mon-Fri)×4 cycles; Group 2 was treated with Anti-PD-1, 10 mpk, IP, q4d×6; Group 3 was treated with Compound 1, 1.4 mpk, SC, qd 5 days on (Mon-Fri)×4 cycles; Group 4 was treated with Compound 1+anti-PD-1, 1.4 mpk+10 mpk, SC, qd 5 days on (Mon-Fri)×4 cycles+IP, q4d×6; Group 5 was treated with Compound 1, 10.5 mpk, IV, biw (Mon, Thu)×4 cycles; Group 6 was treated with Compound 1+anti-PD-1, 10.5 mpk+10 mpk, IV, biw (Mon, Thu)×4 cycles+IP, q4d×6; Group 7 was treated with Compound 1, 7 mpk IV, tiw (Mon, Wed, Fri)×4 cycles; Group 8 was treated with Compound 1+anti-PD-1, 7 mpk+10 mpk, IV, tiw (Mon, Wed, Fri)×4 cycles+IP, q4d×6; Group 9 was treated with Compound 1, 7 mpk IV, tiw (Mon, Tue, Wed)×4 cycles; and Group 10 was treated with Compound 1+anti-PD-1, 7 mpk+10 mpk, IV, tiw (Mon, Tue, Wed)×4 cycles+IP, q4d×6. The tumor sizes were measured three times per week during the treatment. Survival was monitored with tumor volume exceeding 2000 mm^3 as endpoint. The entire study was terminated on D56 after start of the treatment. All treatments were well-tolerated without any adverse effects or significant body weight loss.

CC(=O)N[C@@H](Cc1c[nH]c2ccccc12)C(=O)N[C@@H](CCC(=O)C=[N+]=[N-])C(=O)OC(C)C [Compound 1, Isopropyl (S)-2-((S)-2-acetamido-3-(1H-indol-3-yl)propanamido)-6-diazo-5-oxohexanoate]
Tumor volume (Mean ± SEM) (MC-38 tumors; Day 0, Cpd. 1 0.3 mg/kg qd x 14, s.c.): 71 ± 6 mm^3
Tumor volume (Mean ± SEM) (MC-38 tumors; Day 0, Cpd. 1 1 mg/kg qd x 14, sc): 71 ± 6 mm^3
Tumor volume (Mean ± SEM) (MC-38 tumors; Day 2, Cpd. 1 0.3 mg/kg qd x 14, s.c.): 88 ± 5 mm^3
Tumor volume (Mean ± SEM) (MC-38 tumors; Day 2, Cpd. 1 1 mg/kg qd x 14, sc): 86 ± 4 mm^3
Tumor volume (Mean ± SEM) (MC-38 tumors; Day 5, Cpd. 1 0.3 mg/kg qd x 14, s.c.): 101 ± 5 mm^3
Tumor volume (Mean ± SEM) (MC-38 tumors; Day 5, Cpd. 1 1 mg/kg qd x 14, sc): 91 ± 5 mm^3
Tumor volume (Mean ± SEM) (MC-38 tumors; Day 7, Cpd. 1 0.3 mg/kg qd x 14, s.c.): 131 ± 8 mm^3
Tumor volume (Mean ± SEM) (MC-38 tumors; Day 7, Cpd. 1 1 mg/kg qd x 14, sc): 89 ± 3 mm^3
Tumor volume (Mean ± SEM) (MC-38 tumors; Day 9, Cpd. 1 0.3 mg/kg qd x 14, s.c.): 144 ± 13 mm^3
Tumor volume (Mean ± SEM) (MC-38 tumors; Day 9, Cpd. 1 1 mg/kg qd x 14, sc): 65 ± 4 mm^3
Tumor volume (Mean ± SEM) (MC-38 tumors; Day 12, Cpd. 1 0.3 mg/kg qd x 14, s.c.): 131 ± 15 mm^3
Tumor volume (Mean ± SEM) (MC-38 tumors; Day 12, Cpd. 1 1 mg/kg qd x 14, sc): 38 ± 4 mm^3
Tumor volume (Mean ± SEM) (MC-38 tumors; Day 14, Cpd. 1 0.3 mg/kg qd x 14, s.c.): 171 ± 32 mm^3
Tumor volume (Mean ± SEM) (MC-38 tumors; Day 14, Cpd. 1 1 mg/kg qd x 14, sc): 15 ± 5 mm^3
Tumor volume (Mean ± SEM) (MC-38 tumors; Day 16, Cpd. 1 0.3 mg/kg qd x 14, s.c.): 198 ± 36 mm^3
Tumor volume (Mean ± SEM) (MC-38 tumors; Day 16, Cpd. 1 1 mg/kg qd x 14, sc): 28 ± 7 mm^3
Tumor volume (CT26.WT tumors; Group 3, 1.4 mpk SC qd Mon-Fri x4 cycles, day 4): 55 ± 5 mm^3
Tumor volume (CT26.WT tumors; Group 3, 1.4 mpk SC qd Mon-Fri x4 cycles, day 7): 89 ± 9 mm^3
Tumor volume (CT26.WT tumors; Group 3, 1.4 mpk SC qd Mon-Fri x4 cycles, day 9): 108 ± 11 mm^3
Tumor volume (CT26.WT tumors; Group 5, 10.5 mpk IV biw x4 cycles, day 4): 56 ± 7 mm^3
Tumor volume (CT26.WT tumors; Group 5, 10.5 mpk IV biw x4 cycles, day 7): 71 ± 12 mm^3
Tumor volume (CT26.WT tumors; Group 5, 10.5 mpk IV biw x4 cycles, day 9): 92 ± 13 mm^3
Tumor volume (CT26.WT tumors; Group 7, 7 mpk IV tiw (Mon,Wed,Fri) x4 cycles, day 4): 74 ± 12 mm^3
Tumor volume (CT26.WT tumors; Group 7, 7 mpk IV tiw (Mon,Wed,Fri) x4 cycles, day 7): 81 ± 14 mm^3
Tumor volume (CT26.WT tumors; Group 7, 7 mpk IV tiw (Mon,Wed,Fri) x4 cycles, day 9): 106 ± 21 mm^3
Tumor volume (CT26.WT tumors; Group 9, 7 mpk IV tiw (Mon,Tue,Wed) x4 cycles, day 2): 40 ± 2 mm^3
Tumor volume (CT26.WT tumors; Group 9, 7 mpk IV tiw (Mon,Tue,Wed) x4 cycles, day 4): 48 ± 5 mm^3
Tumor volume (CT26.WT tumors; Group 9, 7 mpk IV tiw (Mon,Tue,Wed) x4 cycles, day 7): 53 ± 8 mm^3
Tumor volume (CT26.WT tumors; Group 9, 7 mpk IV tiw (Mon,Tue,Wed) x4 cycles, day 9): 58 ± 14 mm^3
